Results from article PMC4336329 (PLoS ONE, 2015).
In all, about 310,000 compounds went through this assay and about 14,000 (4.5%) showed an effect of 50% or more. The effect is printed as a negative number. The list shows a part of the results.
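Note: peak tail current of the secondary pulse compared with the same well before compound.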

Each compound was assayed against human ether-à-go-go-related gene (hERG) potassium channel (human, UniProt Q12809) (assay: primary screen, population patch clamp on CHO cells stably expressing hERG).
Chain of human ether-à-go-go-related gene (hERG) potassium channel (Q12809 whole entry, looked up): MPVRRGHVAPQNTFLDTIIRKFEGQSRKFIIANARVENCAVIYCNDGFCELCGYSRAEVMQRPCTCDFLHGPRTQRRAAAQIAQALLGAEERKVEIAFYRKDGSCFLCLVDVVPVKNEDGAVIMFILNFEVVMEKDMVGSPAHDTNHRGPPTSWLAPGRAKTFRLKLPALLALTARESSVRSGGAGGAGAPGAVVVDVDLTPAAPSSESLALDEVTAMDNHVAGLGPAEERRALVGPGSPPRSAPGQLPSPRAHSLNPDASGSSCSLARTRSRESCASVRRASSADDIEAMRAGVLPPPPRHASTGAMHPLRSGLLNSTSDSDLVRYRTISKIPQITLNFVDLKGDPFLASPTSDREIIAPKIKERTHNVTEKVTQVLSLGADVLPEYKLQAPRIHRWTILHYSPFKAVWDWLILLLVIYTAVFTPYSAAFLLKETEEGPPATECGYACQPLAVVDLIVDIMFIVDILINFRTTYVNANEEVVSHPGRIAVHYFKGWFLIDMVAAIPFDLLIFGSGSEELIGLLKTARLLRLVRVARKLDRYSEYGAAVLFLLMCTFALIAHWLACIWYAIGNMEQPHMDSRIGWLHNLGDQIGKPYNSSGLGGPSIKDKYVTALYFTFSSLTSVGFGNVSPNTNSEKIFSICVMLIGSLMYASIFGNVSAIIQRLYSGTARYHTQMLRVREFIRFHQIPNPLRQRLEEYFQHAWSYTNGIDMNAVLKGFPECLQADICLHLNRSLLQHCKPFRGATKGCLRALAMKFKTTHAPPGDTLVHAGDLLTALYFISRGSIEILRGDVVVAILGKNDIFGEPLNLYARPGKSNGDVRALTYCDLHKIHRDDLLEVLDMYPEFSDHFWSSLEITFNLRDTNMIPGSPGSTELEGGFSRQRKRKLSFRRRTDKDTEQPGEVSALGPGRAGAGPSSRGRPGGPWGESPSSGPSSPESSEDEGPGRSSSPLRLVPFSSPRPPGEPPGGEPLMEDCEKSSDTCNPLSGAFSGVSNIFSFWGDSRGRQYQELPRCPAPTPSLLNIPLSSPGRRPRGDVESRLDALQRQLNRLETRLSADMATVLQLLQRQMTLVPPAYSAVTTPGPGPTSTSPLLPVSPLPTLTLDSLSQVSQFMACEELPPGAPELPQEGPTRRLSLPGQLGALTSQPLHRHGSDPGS
`COc1cccc(OC)c1OCCCCCc1c(C)n[nH]c1C.Cl` was tested, and the “hERG current change (%, negative = inhibition) at 10uM” value was 1.36%.
`COC(=O)c1ccc(/C=C/c2ccc3cccc(OC)c3n2)cc1` was tested, and the “hERG current change (%, negative = inhibition) at 10uM” value was -4.59%.
`Cn1cc(C=O)c2cc(F)ccc21` was tested, and the “hERG current change (%, negative = inhibition) at 10uM” value was 19.9%.
With `CCOc1ccc(S(=O)(=O)NC2CCCC2)cc1` the “hERG current change (%, negative = inhibition) at 10uM” value was 16%.
`Cc1c(N(C)S(=O)(=O)c2cccc(C(=O)NCC3CCCO3)c2)c(=O)n(-c2ccccc2)n1C` (stereo not drawn) was tested, and the “hERG current change (%, negative = inhibition) at 10uM” value was -12%.
In the case of `CN(C)C(CNC(=O)c1c(F)cccc1Cl)c1ccco1` (stereo not drawn), the “hERG current change (%, negative = inhibition) at 10uM” value is reported as 26.7%.
`O=C(Nc1nnc(-c2ccco2)o1)c1ccc(Cl)s1` was tested, and the “hERG current change (%, negative = inhibition) at 10uM” value was 8.23%.
For `CCN(CC)P(=O)(Nc1ccc([N+](=O)[O-])cc1)c1c(C)nn(CCC#N)c1NC(=O)c1ccc(Cl)cc1` (stereo not drawn), the “hERG current change (%, negative = inhibition) at 10uM” value was -56.9%.
With `ON=C1c2ccccc2-c2ccccc21` the “hERG current change (%, negative = inhibition) at 10uM” value was 21.4%.
For `O=C(Nc1c(C(=O)O)[nH]c2ccc(F)cc12)c1cccc(C(F)(F)F)c1`, the “hERG current change (%, negative = inhibition) at 10uM” value was -11.1%.
For `Cc1onc(-c2c(Cl)cccc2Cl)c1C(=O)N1CCN(Cc2ccccc2)CC1`, the “hERG current change (%, negative = inhibition) at 10uM” value was -8.32%.
For `Cc1nn(-c2ccccc2)c(NC(=O)c2ccccc2)c1Br`, the “hERG current change (%, negative = inhibition) at 10uM” value was -1.17%.
`CC(C)CC1C(C#N)=C(N)SC(N)=C1C#N` was tested, and the “hERG current change (%, negative = inhibition) at 10uM” value was 15.9%.
For `CC(=O)N1CCC(N(C(=O)Nc2ccc(C)c(C)c2)C2CCCC2)CC1`, the “hERG current change (%, negative = inhibition) at 10uM” value was -31.2%.
`Nc1nonc1-n1nnc(C(=O)N/N=C/c2cc(Cl)ccc2O)c1CN1CCCCCC1` was tested, and the “hERG current change (%, negative = inhibition) at 10uM” value was -1.16%.
In the case of `Cn1c(-c2ccc(Cl)nc2)nc2ccccc21`, the “hERG current change (%, negative = inhibition) at 10uM” value is reported as 5.18%.
For `COc1ccc(CCNc2nnc(Sc3nnnn3-c3ccccc3)s2)cc1OC`, the “hERG current change (%, negative = inhibition) at 10uM” value was -37.6%.
With `CC(=O)Nc1sc(/C(C#N)=C\c2cccc(Cl)c2)nc1-c1ccc(C)cc1` the “hERG current change (%, negative = inhibition) at 10uM” value was 4.68%.
For `CC(C)=CCC/C(C)=C/CCC(C)NCCN1CCNCC1` (stereo not drawn), the “hERG current change (%, negative = inhibition) at 10uM” value was -9.44%.
For `COc1ccccc1N1CCN(Cc2ccc(SC)cc2)CC1.O=C(O)C(=O)O`, the “hERG current change (%, negative = inhibition) at 10uM” value was -72.9%.
For `CN(C)c1nc(NCc2ccccc2)nc(N/N=C/c2cccc(Br)c2)n1`, the “hERG current change (%, negative = inhibition) at 10uM” value was 29.7%.
For `O=C(NCCSCc1ccccc1)c1ccc(F)cc1`, the “hERG current change (%, negative = inhibition) at 10uM” value was -12.4%.
`COC(=O)C1(C(F)(F)F)N=C2Sc3ccccc3N2C(N2CCOCC2)=N1` (stereo not drawn) was tested, and the “hERG current change (%, negative = inhibition) at 10uM” value was 14%.
`NC(=O)c1nsc(C(=O)N(c2ccc(Cl)cc2)C(C(=O)NCC2CCCO2)c2cccs2)c1N` (stereo not drawn) was tested, and the “hERG current change (%, negative = inhibition) at 10uM” value was 11.4%.
In the case of `O=C(COC(=O)Cc1ccc(F)cc1)Nc1ccc2[nH]c(=O)[nH]c2c1`, the “hERG current change (%, negative = inhibition) at 10uM” value is reported as 10.8%.
In the case of `Cc1ccccc1OCC(=O)Nc1cccc(S(=O)(=O)NC2=NCCCCC2)c1`, the “hERG current change (%, negative = inhibition) at 10uM” value is reported as -7.89%.
`CC(C)CN(C(=O)C1=NN(c2ccccc2)C(=O)CC1)c1c(N)n(Cc2ccccc2)c(=O)[nH]c1=O` was tested, and the “hERG current change (%, negative = inhibition) at 10uM” value was 9.29%.
For `CC(C)/C(C=O)=C(/NC1CCCCC1)c1ccccc1`, the “hERG current change (%, negative = inhibition) at 10uM” value was 12.8%.
For `O=C(Nc1nc2c(s1)CCCC2)c1nn(Cc2ccccc2)c(=O)c2ccccc12`, the “hERG current change (%, negative = inhibition) at 10uM” value was -5.38%.
In the case of `COc1ccc(NC(=O)c2c(C)cc(=O)oc2C)c(OC)c1`, the “hERG current change (%, negative = inhibition) at 10uM” value is reported as 17.6%.
For `Cc1ccc(S(=O)(=O)N2CCN(c3nc4ccccc4nc3-n3nc(C)cc3C)CC2)cc1`, the “hERG current change (%, negative = inhibition) at 10uM” value was -6.79%.
With `CCc1ccc(NC(=O)C2=CC=CN3CCS(=O)(=O)N=C23)cc1` the “hERG current change (%, negative = inhibition) at 10uM” value was -24.9%.
`CCCCC(NC(=O)COc1cc2c(c3oc(=O)cc(C)c13)CCC(C)(C)O2)C(=O)O` (stereo not drawn) was tested, and the “hERG current change (%, negative = inhibition) at 10uM” value was 7.13%.
With `Cc1cc2c(cc1S(=O)(=O)N(C)c1ccccc1)n(C)c(=O)n2C` the “hERG current change (%, negative = inhibition) at 10uM” value was 1.73%.
With `CCOC(=O)C1=C(C)NC2=C(C(=O)C(C(=O)OCC)C(c3ccco3)C2)C1c1ccccn1` (stereo not drawn) the “hERG current change (%, negative = inhibition) at 10uM” value was -7.73%.
In the case of `COC(=O)c1ccc(CNC(=O)c2ccc(OC)c(S(=O)(=O)NC3CCCC3)c2)cc1`, the “hERG current change (%, negative = inhibition) at 10uM” value is reported as -17.3%.
With `CCN(CC)c1ccc(/C=N/Nc2ccc(C)cc2)c(O)c1.Cl` the “hERG current change (%, negative = inhibition) at 10uM” value was 11.5%.
`O=S(=O)(c1cccs1)N1CN(C2CCCCC2)c2nc3ccccc3nc21` was tested, and the “hERG current change (%, negative = inhibition) at 10uM” value was -1.72%.
For `Cc1ccc(SCc2nnc(N)s2)cc1`, the “hERG current change (%, negative = inhibition) at 10uM” value was -4.47%.
`O=C1/C(=C/C=C/c2ccco2)SC(=S)N1NS(=O)(=O)c1ccccc1` was tested, and the “hERG current change (%, negative = inhibition) at 10uM” value was 2.71%.
With `CC(=O)NCCOC(=O)Nc1ccncc1` the “hERG current change (%, negative = inhibition) at 10uM” value was 8.58%.
`O=C(CCn1c(=O)[nH]c2ccsc2c1=O)N(CCc1ccccc1)Cc1ccccc1` was tested, and the “hERG current change (%, negative = inhibition) at 10uM” value was -28.9%.
For `CCC(CO)n1cnnc1-c1ccncc1` (stereo not drawn), the “hERG current change (%, negative = inhibition) at 10uM” value was 20.9%.
In the case of `Cc1nn(-c2ccccc2)nc1CNC(=O)C1CCC1`, the “hERG current change (%, negative = inhibition) at 10uM” value is reported as 2.73%.
With `S=C1NC[C@H](Cc2cccc3ccccc23)N1CC1CCCCC1` the “hERG current change (%, negative = inhibition) at 10uM” value was 10.3%.
With `COc1ccc(OC)c(CCNC(=O)C(C)n2nc(C)c3c(C)n(-c4ccc(C)cc4)nc3c2=O)c1` (stereo not drawn) the “hERG current change (%, negative = inhibition) at 10uM” value was -53.2%.
`COc1ccc(C(=O)NCC(=O)NCc2cc(=O)n(C)c(=O)n2C)cc1` was tested, and the “hERG current change (%, negative = inhibition) at 10uM” value was 8.17%.
For `COc1ccc(CNC(=O)C2CCC(=O)N2C(C)C)c(OC)c1` (stereo not drawn), the “hERG current change (%, negative = inhibition) at 10uM” value was 4.1%.
In the case of `CCOC(CCn1c(SCC(=O)Nc2cc(C)on2)nc2ccccc2c1=O)OCC`, the “hERG current change (%, negative = inhibition) at 10uM” value is reported as 11.2%.
`CC1CCc2c(sc3ncnc(N4CCOCC4)c23)C1` (stereo not drawn) was tested, and the “hERG current change (%, negative = inhibition) at 10uM” value was -16.6%.
For `Cc1cc(C(=O)OCC(=O)N2CC(C)OC(C)C2)c(C)n1-c1ccccc1` (stereo not drawn), the “hERG current change (%, negative = inhibition) at 10uM” value was -20.4%.
`CCc1nnc(SCC(=O)Nc2ccccc2Cl)nc1CC` was tested, and the “hERG current change (%, negative = inhibition) at 10uM” value was 2.44%.
In the case of `c1ccc(-c2noc(CN3CCN(C(c4ccccc4)c4ccccc4)CC3)n2)cc1`, the “hERG current change (%, negative = inhibition) at 10uM” value is reported as -0.736%.
With `CC(=O)NCc1nc2ccccc2n1C(C)C` the “hERG current change (%, negative = inhibition) at 10uM” value was 6.51%.
In the case of `Cc1cc([N+](=O)[O-])nn1CC(=O)NNC(=S)Nc1ccc(Cl)cc1`, the “hERG current change (%, negative = inhibition) at 10uM” value is reported as 20.8%.
`COC(=O)C1C(c2ccc(OC)cc2)NC(=O)NC1(O)C(F)(F)Cl` (stereo not drawn) was tested, and the “hERG current change (%, negative = inhibition) at 10uM” value was 18.6%.
In the case of `CC(=O)c1ccc(NC(=O)C2CCCN(S(=O)(=O)c3cccc4nonc34)C2)cc1` (stereo not drawn), the “hERG current change (%, negative = inhibition) at 10uM” value is reported as 14.2%.
